Test results reported in PubChem BioAssay (NCATS).
Inconclusive results, whose numbers are uncertain, are shown with a selection of clear calls. For some assays here: No potency is given beside an inconclusive call; the fits are too rough. Active and inactive are the calls of the source. The call rests on the fitted dose curve; in most records, active means well fitted curve in the direction sought with a large enough effect; inconclusive means small, poorly fitted or top-dose-only effect, or another doubt; inactive means no such curve, though single readings can be large; an effect the other way counts as inactive or inconclusive.

What was measured:
[1] = qHTS to identify inhibitors of the type 1 interferon - major histocompatibility complex class I in skeletal muscle: primary screen against the NCATS LOPAC collection (AID 1347405);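 further: lytic HiBiT luminescence reporting HLA-B protein level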; further: potency means the concentration at half of the fitted maximal effect; on activity change, negative = inhibition: on the % scale 0 is the no-effect control and ±100 the full control effect
In short: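 Cells: C25cl48 human myoblasts, HiBiT-tagged HLA-B*08:01, stimulated with IFN-beta 4.0 ng/ml. Compounds are titrated 1:4.3 over 7 points from 46 uM final and incubated 24 hrs; endogenous MHC class I is quantified by HiBiT lytic luminescence.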

[2] = qHTS to identify inhibitors of the type 1 interferon - major histocompatibility complex class I in skeletal muscle: primary screen against the NCATS Pharmaceutical Collection (AID 1347407); conditions: human skeletal muscle cells, IFN-b-induced MHC-I HiBiT luminescence, 24 h; activity change, negative = inhibition: at 45.9 µM (top of the series);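 further: luminescence of HiBiT knocked into endogenous HLA-B as interferon-induced MHC class I level; potency means the concentration at half of the fitted maximal effect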
In short: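 Luminescence from HiBiT-tagged endogenous HLA-B*08:01 served as the read-out of IFN-beta-induced MHC class I in CRISPR-engineered C25cl48 myoblasts. Cells received 4 ng/ml IFN-beta plus compound (high final 46 uM, […]) for 24 h.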

[3] = DH5-alpha competent E. coli microbial cell viability qHTS against the NCATS CANVASS Library (AID 1347377); conditions: BacTiter-Glo ATP luminescence, overnight; further: potency means the concentration at half of the fitted maximal effect
In short: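 Cell viability of competent DH5-alpha E. coli is scored from ATP content by luminescence. Cells sit overnight at 37C with compound across an 11-point concentration series.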

[4] = qHTS for H2AX Agonists against the NCATS CANVASS Library (AID 1347378); conditions: CHO-K1 H2AX phosphorylation, HTRF TR-FRET, 3 h; at 76.9 µM (top of the series);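 further: phospho-H2AX S139 level in CHO-K1 lysates by TR-FRET emission ratio; 0% is about no effect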
In short: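 CHO-K1, 1000 cells/well, o/n 37C; cpd several conc, 3 hr 37C, 0.76% DMSO; lyse 30 min RT; cryptate anti-pH2AX(S139) + d2 anti-H2AX, 24 hr RT; HTRF 665/620.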

[5] = qHTS for Antimalaria activity screened against the NCATS CANVASS Library (AID 1347380);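 further: Plasmodium falciparum strain Dd2 asexual parasites grown in red blood cells; nearly all actives have a fitted effect of over 40% in size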; conditions: P. falciparum Dd2 growth, SYBR Green fluorescence, 72 h; at 28.7 µM (top of the series)
In short: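 Growth inhibition of asexual erythrocytic P. falciparum Dd2 was quantified by SYBR Green DNA staining. Cultures grew 72 h with compound (11-point series) in hypoxic gas at 37C; lysis and staining lasted 18 h.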

[6] = qHTS for inhibitors of ER calcium dysfunction: SERCaMP assay screened against the NCATS CANVASS Library (AID 1347393); further: potency means the concentration at half of the fitted maximal effect; nearly all actives have a fitted effect of over 40% in size
In short: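 qHTS in SH-SY5Y reporter cells: 16 h compound pretreatment, 4 h thapsigargin, then secreted Gaussia luciferase measured by luminescence.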

[7] = Redox Reaction Profiling qHTS: Assay Interference Panel against the NCATS CANVASS Library (AID 1347401); conditions: resazurin-DTT redox cycling, fluorescence, 15 min; further: potency means the concentration at half of the fitted maximal effect
In short: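 Resazurin (5 uM) conversion to resorufin measured with 200 uM DTT in 50 mM HEPES pH 7.3, 50 mM NaCl. Compounds tested in 11-point qHTS series. Fluorescence (ex 525/em 598 nm) read before and after 15 min dark incubation.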

[8] = 10-beta competent E. coli microbial cell viability qHTS against the NCATS CANVASS Library (AID 1347376); further: potency means the concentration at half of the fitted maximal effect; conditions: E. coli 10-beta viability, BacTiter-Glo ATP luminescence, overnight
In short: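 Cytotoxicity toward competent E. coli is scored from cellular ATP content via BacTiter-Glo luminescence following overnight compound exposure at 37C, 5% CO2.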

[9] = qHTS for Activators of p53 Stress Response Pathway screened against the NCATS CANVASS Library (AID 1347388); conditions: p53RE-bla HCT-116, beta-lactamase reporter, 16 h; further: potency means the concentration at half of the fitted maximal effect
In short: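 p53RE-bla HCT-116 cells (4000/well) were plated 5 h at 37C, exposed to compounds for 16 h at 37C over an 11-point concentration series, then loaded with CCF4 for 2 h at room temperature; 460/530 nm emission ratio read.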

[10] = Secretion counterscreen for inhibitors of the SERCaMP assay screened against the NCATS CANVASS Library (AID 1347390)
In short: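 SH-SY5Y-GLuc STOP cells; 4 h attach; cpds 0.001 - 77 uM (qHTS, 11 pts), 20 h 37C/5% CO2; coelenterazine in glow buffer; luminescence, 5 s exposure.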

[11] = qHTS for activators of Nrf2/ARE signaling pathway screened against the NCATS CANVASS Library (AID 1347391); conditions: ARE-bla HepG2, beta-lactamase reporter, 16 h; further: potency means the concentration at half of the fitted maximal effect; nearly all actives have a fitted effect of over 60% in size
In short: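 Cells carrying an ARE-driven beta-lactamase reporter (HepG2 background) are dosed for 16 h, then stained with CCF4. Cell viability in the same wells is measured by CellTiter-Glo luminescence.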

[12] = Viability qHTS for inhibitors of the SERCaMP assay screened against the NCATS CANVASS Library (AID 1347400); conditions: SH-SY5Y SERCaMP cells viability, CellTiter-Glo, 48 h; further: potency means the concentration at half of the fitted maximal effect; nearly all actives have a fitted effect of over 70% in size
In short: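 Cytotoxicity counter-screen: ATP content (CellTiter-Glo luminescence) of SH-SY5Y-GLuc SERCaMP MJH297 cells after 48 h at 37C with compounds in an 11-point qHTS series.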

[13] = qHTS to identify inhibitors of the type 1 interferon - major histocompatibility complex class I in skeletal muscle: primary screen against the NCATS Mechanism Interrogation Plate v5.0 (MIPE) Libary (AID 1347411); conditions: iHSKM cells + IFN-b, HiBiT-tagged MHC-I luminescence, 24 h; activity change, negative = inhibition: at 45.8 µM (top of the series);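 further: plate controls were vehicle for no effect and reference inhibitor for full effect; nearly all actives have a fitted effect of over 65% in size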
In short: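 Cells were genome-edited human myoblasts carrying a HiBit tag on endogenous HLA-B. They were treated with IFN-beta (4.0 ng/ml) and titrated compounds (top 46 uM) for 24 hrs before lytic HiBiT detection.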
Tags describe the fitted curve by direction and shape.

With `C[C@@]1(C2CCCC2)Cc2cc(OCC(=O)O)c(Cl)c(Cl)c2C1=O` the Potency [1] was inconclusive [inhibitor, single point].
For `O=C1NC(=O)/C(=C/c2ccc3nccnc3c2)S1`, the Potency [1] was inconclusive [inhibitor, single point].
With `CC(=O)/C=C1\C(=O)N(C)c2ccccc21` the Potency [1] was active: 22.4 µM.
With `Cc1ccc(S(=O)(=O)/C=C/C#N)cc1` the Potency [1] was active: 12.6 µM.
In the case of `CCOC(=O)N1CCN(/[N+]([O-])=N/Oc2ccc([N+](=O)[O-])cc2[N+](=O)[O-])CC1`, the Potency [1] is reported as inconclusive [inhibitor, single point].
In the case of `COc1ccc(/C=C/C(=O)Nc2ccccc2C(=O)O)cc1OC`, the Potency [1] is reported as inconclusive [inhibitor, single point].
In the case of `O=c1[nH]c(=O)c2nc3ccccc3nc2[nH]1`, the Potency [1] is reported as “inactive”.
With `CN1[C@@H](CC(=O)c2ccccc2)CCC[C@H]1C[C@H](O)c1ccccc1` the Potency [1] was “inactive”.
For `O=C1c2ccccc2C(=O)c2c(NCCc3ccc(O)cc3)ccc(NCCc3ccc(O)cc3)c21`, the Potency [1] was inconclusive [inhibitor, single point].
With `CC(C)(C(=O)O)c1ccc(C(O)CCCN2CCC(C(O)(c3ccccc3)c3ccccc3)CC2)cc1` (centres undefined) the Potency [1] was “inactive”.
With `O=c1c(-c2ccc(O)cc2)coc2cc(O)cc(O)c12` the Potency [1] was active: 17.8 µM and the Potency [2] was inconclusive [inhibitor, partial curve].
In the case of `NC(=O)c1cn(Cc2c(F)cccc2F)nn1`, the Potency [1] is reported as “inactive”.
With `CSc1ccc2c(c1)C(N1CCN(C)CC1)Cc1ccccc1S2` (centres undefined) the Potency [1] was inconclusive [inhibitor, partial curve, poor fit] and the Potency [2] was inconclusive [inhibitor, single point].
In the case of `O=C1NC(=O)/C(=C/c2ccc3c(c2)OC(F)(F)O3)S1`, the Potency [1] is reported as inconclusive [inhibitor, single point].
With `CC(=O)NCCc1c[nH]c2ccc(O)cc12` the Potency [3] was inconclusive [cytotoxic, full curve, poor fit], the activation [4] was inactive: 4.76% and the activity change, negative = inhibition [5] was inactive: -21.1%. For the same compound, the Potency [6] was inconclusive [inhibitor, partial curve, poor fit] and the Potency [7] was inconclusive [activator, partial curve].
With `S=C(Nc1ccccc1)Nc1nccs1` the Potency [1] was inconclusive [inhibitor, single point].
With `COCCOC(=O)C1=C(C)NC(C)=C(C(=O)OC/C=C/c2ccccc2)C1c1cccc([N+](=O)[O-])c1` (centres undefined) the Potency [1] was active: 22.4 µM and the Potency [2] was inconclusive [inhibitor, single point].
With `O=C(Nc1nc2ccccc2n1CCN1CCOCC1)c1cccc([N+](=O)[O-])c1` the Potency [1] was inconclusive [inhibitor, partial curve, poor fit].
For `Cc1cc(C)c(/C=C2\C(=O)Nc3ccccc32)[nH]1`, the Potency [1] was inconclusive [inhibitor, partial curve, poor fit] and the Potency [2] was inconclusive [inhibitor, single point].
In the case of `Cc1oncc1C(=O)Nc1ccc(C(F)(F)F)cc1`, the Potency [1] is reported as inconclusive [inhibitor, partial curve, poor fit] and the Potency [2] is reported as inconclusive [inhibitor, partial curve].
With `O=Nc1c(-c2c(O)[nH]c3cc(Br)ccc23)[nH]c2ccccc12` the Potency [1] was active: 15.8 µM.
For `CN1CCc2cccc3c2C1Cc1ccc(O)c(O)c1-3` (centres undefined), the Potency [1] was inconclusive [inhibitor, single point].
With `O=C(Nc1ccc([N+](=O)[O-])cc1Cl)c1cc(Cl)ccc1O` the Potency [1] was inconclusive [inhibitor, full curve, poor fit].
In the case of `CC(C(=O)O)c1cccc(C(=O)c2ccccc2)c1` (centres undefined), the Potency [1] is reported as “inactive”.
With `CCn1cc(C(=O)O)c(=O)c2cc(F)c(N3CCNC(C)C3)c(F)c21` (centres undefined) the Potency [1] was “inactive”.
With `O=c1c(O)c(-c2ccc(O)c(O)c2)oc2cc(O)ccc12` the Potency [8] was inconclusive [cytotoxic, partial curve, poor fit], the Potency [3] was inconclusive [rising, full curve, poor fit] and the activity change, negative = inhibition [5] was inactive: -62.4%. The Potency [9] was inconclusive [activator, partial curve, poor fit], the Potency [10] was inconclusive [inhibitor, partial curve, poor fit] and the Potency [11] was inconclusive [activator, single point]. The Potency [6] was inconclusive [inhibitor, full curve, poor fit], the Potency [12] was inconclusive [cytotoxic, single point] and the Potency [7] was inconclusive [activator, partial curve, poor fit]. The activity change, negative = inhibition [13] was inconclusive: -45.4% [inhibitor].
